Results: paper PMC4336329 (PLoS ONE, 2015)
Screen size: about 310,000 compounds; about 14,000 (4.5%) showed an effect of 50% or more. The effect is printed as a negative number. The list shows a part of the results.

biological target: human ether-à-go-go-related gene (hERG) potassium channel (human, UniProt Q12809); assay: primary screen, population patch clamp on CHO cells stably expressing hERG
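Also: peak tail current of the secondary pulse compared with the same well before compound.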

Sequence of human ether-à-go-go-related gene (hERG) potassium channel (Q12809 whole entry, looked up): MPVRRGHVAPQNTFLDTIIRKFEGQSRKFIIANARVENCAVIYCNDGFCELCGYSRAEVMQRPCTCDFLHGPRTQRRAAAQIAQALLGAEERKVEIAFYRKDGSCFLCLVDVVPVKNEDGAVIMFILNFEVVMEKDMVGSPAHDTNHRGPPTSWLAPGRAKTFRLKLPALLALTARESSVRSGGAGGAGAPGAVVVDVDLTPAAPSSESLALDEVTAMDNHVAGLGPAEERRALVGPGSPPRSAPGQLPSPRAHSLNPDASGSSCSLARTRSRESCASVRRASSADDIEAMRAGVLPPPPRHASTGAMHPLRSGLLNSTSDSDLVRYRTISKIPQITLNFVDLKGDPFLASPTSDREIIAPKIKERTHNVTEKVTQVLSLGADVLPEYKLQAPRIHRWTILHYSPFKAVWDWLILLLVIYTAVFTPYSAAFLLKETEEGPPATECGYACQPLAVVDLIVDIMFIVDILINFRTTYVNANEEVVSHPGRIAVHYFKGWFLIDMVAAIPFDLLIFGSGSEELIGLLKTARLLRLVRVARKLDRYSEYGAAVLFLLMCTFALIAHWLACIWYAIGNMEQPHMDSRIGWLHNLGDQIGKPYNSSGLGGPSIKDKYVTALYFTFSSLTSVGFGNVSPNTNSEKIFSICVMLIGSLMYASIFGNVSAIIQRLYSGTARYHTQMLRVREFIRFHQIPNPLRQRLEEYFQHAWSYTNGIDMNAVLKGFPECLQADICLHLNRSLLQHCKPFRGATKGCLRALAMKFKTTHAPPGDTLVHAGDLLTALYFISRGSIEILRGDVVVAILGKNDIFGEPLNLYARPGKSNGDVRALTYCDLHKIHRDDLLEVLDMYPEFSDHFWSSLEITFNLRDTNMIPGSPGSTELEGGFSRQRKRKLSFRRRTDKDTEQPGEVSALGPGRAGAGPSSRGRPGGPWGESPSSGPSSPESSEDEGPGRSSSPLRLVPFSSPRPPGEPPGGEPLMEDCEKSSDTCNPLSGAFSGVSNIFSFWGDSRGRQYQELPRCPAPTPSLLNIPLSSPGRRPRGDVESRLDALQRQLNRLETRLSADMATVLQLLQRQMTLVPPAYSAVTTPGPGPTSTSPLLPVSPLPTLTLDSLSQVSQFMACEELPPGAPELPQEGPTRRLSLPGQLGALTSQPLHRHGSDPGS

Compound	hERG current change (%, negative = inhibition) at 10uM
Cc1cccc(OCC(=O)N2CCN(C(=O)COc3ccc(Cl)cc3)CC2)c1	-72.2%
Cc1ccc(F)cc1NC(=O)CCc1c(C)nn(-c2ccc(N3CCCCC3)nn2)c1C	0.00258%
CC(=O)c1ccc2c(c1)N(C)c1ccccc1S2	0.783%
O=S(=O)(c1ccc(N2CCCCCC2)nc1)N1CCCC1	17.2%
Cc1cc(SCC(=O)OC/C(O)=C(\C#N)c2nc3ccccc3[nH]2)c(C)cc1Br	26.9%
Cc1ccc(C(=O)/C=C/c2ccccc2[N+](=O)[O-])cc1	6.14%
O=C(Nc1ccccn1)C(=O)N1CCCCC1	6.52%
COc1ccc2cc(CCl)c(Cl)nc2c1	9.67%
COc1ccc(CNC(=O)CCSCc2cccc(Cl)c2)c(OC)c1	-21.7%
Nc1c([N+](=O)[O-])cc(-c2cnc[nH]2)cc1[N+](=O)[O-]	22.4%
O=C(CSc1nnnn1C1CCCCC1)N1CCc2ccccc21	0.871%
O=C(CCCn1c(=S)[nH]c2ccccc2c1=O)NC1CCCCC1	12.7%
COc1ccc(CC(=O)NNC(=S)Nc2ccccc2)cc1Br	11%
N#Cc1c(N)nc2c3c(sc(=N)c2c1N)NC(=O)CC3c1ccccc1 (stereo not drawn)	14.5%
CC(=O)N1c2ccccc2C(C)(c2ccccc2)CC1(C)C (stereo not drawn)	-23.2%
Cc1ccccc1C(=O)N1CCC(C(=O)Nc2ccccn2)CC1	11.9%
CC(C)c1ccc(NC2CCCN(C(=O)CCN3CCCCC3=O)C2)cc1 (stereo not drawn)	17.1%
O=C(CN1CCC(n2nnc3cc(C(F)(F)F)ccc32)CC1)Nc1ccc2c(c1)CCC2	1.83%
CCOc1ncccc1C(=O)NCCc1c[nH]c2ccccc12	-7.93%
O=C(c1cnc2sccn2c1=O)N(Cc1ccccc1)c1ccccn1	-4.04%
Cc1ccc([N+](=O)[O-])cc1NC(=O)c1c(-c2ccccc2)noc1C	-9.12%
Cc1ccc(C(=O)NCCCc2ccccc2)s1	7.54%
COC(=O)Cc1ccc(NC(=S)NCc2ccc(OC)cc2)cc1	-18.2%

Compound	hERG current change (%, negative = inhibition) at 10uM
Cn1ccc(C(=O)OCC(=O)c2ccccc2)n1	-3.73%
Cc1ccc(C)c(OCCC(=O)NCCc2ccc(Cl)cc2)c1	21.6%
O=C(COC(=O)c1ccc(OC(F)F)cc1)NCCNC(=O)COC(=O)c1ccc(OC(F)F)cc1	-10.1%
Cc1c(C(=O)N2CCc3ccccc32)cnn1C	3.63%
CN(C)S(=O)(=O)N1CCN(C(=O)c2ccc3c(c2)OCO3)CC1	10%
COc1ccc(NC(=O)CC2C(=O)NCCN2C(=O)c2ccc(N(C)C)cc2)cc1 (stereo not drawn)	-0.731%
CCCS(=O)(=O)N1CCN(Cc2ccc3c(c2)c2ccccc2n3CC)CC1.O=C(O)C(=O)O	9.97%
C=CCOc1c(Cl)cc(CNc2nccs2)cc1OC	-38.7%
CCOC(=O)N1CCC(N2C(=O)c3ccc(C(=O)NCCOC)cc3C2=O)CC1	10.3%
CCOC(=O)CSc1nnc(CNC(=O)c2ccccc2OC)n1-c1ccc(OC)cc1	-28.8%
Cc1cc2oc(=O)cc(C)c2cc1NC(=O)CCl	-4.17%
O=C(N/N=C/c1ccc(Br)cc1)c1ccccc1-n1cccc1	-2.55%
CCOc1cc(C(=O)Nc2ccc(S(=O)(=O)NC3=NCCCCC3)cc2)cc(Br)c1OC	9.39%
Cc1cc(C=O)c(C)n1-c1ccc2c(c1)OCO2	32.2%
O=C(Cn1cnc2ccccc2c1=O)Nc1ccccc1N1CCOCC1	15.3%
Cc1ccc(Cn2cc(/C=N/NC(=O)Cc3nnc(NC(=O)c4ccc(C)cc4)s3)c3ccccc32)cc1	-4.33%
CCOC(=O)N1CCN=C1SCc1ccc(Cl)c(Cl)c1	-4.19%
Cc1ccc(S(=O)(=O)N2CCCCC2)cc1NC(=O)CNCc1ccco1.O=C(O)C(=O)O	-32.1%
CCN(N)C(=S)Nc1ccc(F)cc1	3.59%
Cc1cc(Cl)c(OCCOCCN2CCC(C)CC2)c(Br)c1.O=C(O)C(=O)O	-57.6%
Cc1cc(=O)oc2cc(OCC(=O)OCC(=O)Nc3c(C)n(C)n(-c4ccccc4)c3=O)ccc12	19.3%
COc1ccc(CNS(=O)(=O)NCc2ccccc2)cc1OC	-1%
Cc1ccc(C(C)C)cc1OCC(=O)N1CCN(C(=O)c2ccco2)CC1	-41.2%

Compound	hERG current change (%, negative = inhibition) at 10uM
O=C(COc1cccnc1[N+](=O)[O-])Nc1ncc(Cl)cc1Cl	-3.74%
Cl.O=C(CCN1CCCCCC1)Nc1cccc(Cl)c1	-42.7%
c1ccc2c(c1)nc(NCC1CCCO1)c1nnnn12 (stereo not drawn)	-11.1%
CC1(C)CC(=O)c2cc(C(=O)NCc3ccco3)c(=O)n(-c3ccc(Cl)cc3)c2C1	-22.2%
CC(=O)Nc1cccc(NC(C)=C(C#N)C#N)c1	20.6%
Cc1nn(C)c(C)c1CN(C)C(=O)c1cnn2c1NC(c1ccccc1)CC2C(F)(F)F (stereo not drawn)	-20.9%
CC(C)C(c1nnnn1CC1CCCO1)N1CCN(Cc2ccc3c(c2)OCO3)CC1.Cl (stereo not drawn)	-6.66%
Cc1ccc(NC(=O)CN(C)C(=O)Cn2ncc(Cl)c(Cl)c2=O)cc1	8.35%
CC1CCC(C(C)C)C(OC(=O)C[n+]2cc(-c3ccc(Cl)cc3)n3c2CCCCC3)C1.[Cl-] (stereo not drawn)	-79.4%
C=CCC(C#Cc1ccccc1)N(C)C (stereo not drawn)	-12.8%
COc1ccc(CCNc2c3ccccc3nc3ccccc23)cc1OC.Cl	-69.7%
Cc1ccc(-n2cc(CN3CCN(c4ccccn4)CC3)c(-c3ccc(F)cc3)n2)cc1	11.2%
Cc1cccc(NC(=O)c2ccc(COc3ccccc3)o2)n1	-21.5%
COc1ccc(C(=O)c2nc3c(n2O)CCCC3)cc1OC	18.1%
CCOC(=O)N1CCN(C(=O)Nc2ccc3nc(C)c(C)nc3c2)CC1	3.79%
CC(CN1CCCCC1)OC(=O)COc1ccc(Br)cc1 (stereo not drawn)	8.15%
COCCC(=O)Nc1ccc2c(c1)CN(C(=O)c1ccc(CSC)o1)CC2	4.5%
O=C(O)CC(NCc1ccco1)C(=O)OCC1CCCO1 (stereo not drawn)	10.7%
COC(=O)CSCC(=O)Nc1nnc(-c2ccccc2C)s1	3.14%
CC(C)C[C@H]1CN=C(Nc2ccccc2)N1CCC(C)c1ccccc1 (stereo partly drawn)	-67%
COc1ccc(/C=C/C(=O)OCCNC(=O)c2ccncc2)cc1OC	30.8%
Cc1nc2ccc(NS(=O)(=O)c3c(F)cc(F)cc3Br)cc2s1	-19%
COc1ccc(-c2cccc(C(=O)Nc3ccc(OC)c(OC)c3)c2)cc1	4.27%

Compound	hERG current change (%, negative = inhibition) at 10uM
CCC(Sc1nc(N)cc(N)n1)C(=O)O (stereo not drawn)	6.74%
CC(=O)c1cccc(NC(=O)Nc2ccc3c(c2)CCC3)c1	10.4%
COc1ccc(/C=C/C(=O)OCC(=O)Nc2cc3oc4ccccc4c3cc2OC)cc1	20.3%
COC(=O)CCC(=O)OC1(C)C(=O)C2=CN(Cc3ccc4c(c3)OCO4)C(c3ccc(OC)cc3)=CC2=C(Br)C1=O (stereo not drawn)	5.94%
O=C(O)C1C(C(=O)O)C2(Cl)C(Cl)=C(Cl)C1(Cl)C2(Cl)Cl (stereo not drawn)	11%
CC(C)CN(C(=O)CN1CCN(c2ccccc2F)CC1)c1c(N)n(CC(C)C)c(=O)[nH]c1=O	7.43%
COc1ccc(S(=O)(=O)NC(C)C(=O)Nc2ccccc2C(F)(F)F)cc1 (stereo not drawn)	-10.1%
CCN(CC(=O)NCc1ccc(F)cc1)C(=O)COc1ccc2ccccc2c1	-70.5%
COc1ccc2[nH]c(C(=O)Nc3ccc(C)c(F)c3)cc2c1	12.5%
O=C(Cc1ccccc1)c1ccccc1C(=O)N1CCCCC1	16.2%
COC(=O)c1cccc(NC(=O)CSc2nncn2-c2ccccn2)c1	-3.56%
ClC(Cl)=C(c1ccc(Cl)cc1)c1ccc(Cl)cc1	-15.5%
COc1ccc(Cl)cc1NC(=S)Nc1ccc(Cl)cn1	10.1%
O=C(O)CC(c1cccc(Cl)c1)n1cccc1 (stereo not drawn)	7.07%
CCOC(=O)N1CCN(C(=O)NC2CCCCC2)CC1	16.2%
C[C@]12CCC3C(CCC4=C/C(=N/OCC(=O)NC(CCC(N)=O)C(=O)O)CC[C@@]43C)C1CCC2O (stereo partly drawn)	2.01%
COc1cc(CNCc2ccncc2)cc(Br)c1OCc1ccccc1F.Cl	-43.3%
COCCNC(=S)Nc1cccc2cnccc12	-8.54%
Cc1ccc(-n2c(O)c(C=NCc3ccco3)c(=O)[nH]c2=S)cc1C	8.53%
C=CCN1C(=O)C(Cc2ccc(OC)cc2)S/C1=N/N=C/c1ccco1 (stereo not drawn)	-1.49%
COc1ccc(OC)c(S(=O)(=O)N2CCC(C(=O)NCc3cccnc3)CC2)c1	10.5%
